# Reference: PubChem BioAssay AID686978 (National Center for Advancing Translational Sciences (NCATS), 2013)
# About 64,000 (15%) of roughly 420,000 compounds were called active. Inconclusive means that the source gave no clear call. Such entries were picked first, then a sample of the others. Calls come from the whole dose curve; as a rule, active = well fitted inhibition curve with a large enough effect; inconclusive = small, poorly fitted or top-dose-only effect; inactive = flat fitted curve, though single readings scatter. Potencies of inconclusive entries are left out as doubtful fits.
# Experiment: qHTS for Inhibitors of human tyrosyl-DNA phosphodiesterase 1 (TDP1): qHTS in cells in absence of CPT; note: nearly all actives have a fitted effect of over 55% in size
# Details: DT40 Tdp1-/- hTDP1 cells, no CPT, ATP luminescence, 48 h; activity change, negative = growth inhibition: at 46.2 µM (top of the series) unless noted
# In short: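 Growth of hTDP1-complemented DT40 Tdp1-knockout cells is measured by ATP luminescence after at least 48 hr compound exposure at 37 °C, with DMSO substituting for the 20 nM CPT used in the parallel screen.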
# % is set by controls: 0 for no effect and ±100 for the full control effect; potency is the fitted concentration of half-maximal effect; tags give direction and shape of the fitted curve.
SMILES,Potency,"activity change, negative = growth inhibition"
COc1cccc(NC(=O)N(Cc2c[nH]c3ccccc23)C2CCCCC2)c1,active: 18.4 µM,–
CCOc1ccc2c3c(c(=O)oc2c1OCC)CCCC3,"inconclusive [inhibitor, single point]",–
Cc1ccc(C(CC(=O)Nc2ccc(F)c(Cl)c2)N2Cc3ccccc3C2=O)cc1 (stereo not given),"inconclusive [inhibitor, partial curve]",–
O=C(/C=C/c1cccs1)NC(=S)Nc1ccccc1,"inconclusive [inhibitor, single point]",–
Cn1cc(-c2nnnn2-c2cccc(C(F)(F)F)c2)c(C(F)(F)F)n1,–,inactive: -21.7%
CCOC(=O)c1[nH]c(C)c(CCC(=O)Nc2ccc(Br)c(C)c2)c1C,"inconclusive [inhibitor, single point]",–
CCc1ccc2oc(C(=O)Nc3nonc3C)c(C)c2c1,"inconclusive [inhibitor, partial curve]",–
COc1cc(C(=O)Nc2nonc2-c2ccc(Cl)cc2)cc(OC)c1OC,"inconclusive [inhibitor, single point]",–
Cc1nc2sccn2c(=O)c1S(=O)(=O)Nc1ccc(N2CCN(C(=O)C(C)C)CC2)cc1,"inconclusive [inhibitor, single point]",inconclusive: -36.9% [inhibitor]
CCOC(=O)c1ccn(-c2nc(-c3cccc(OC)c3)cc(C(F)(F)F)n2)n1,active: 20.6 µM,–
Cc1ccc(N2CC(NC(=O)C3CC3)CC2=O)cc1C (stereo not given),–,inactive: -7.96%
CCN(CC)CCn1c(SCC(=O)Nc2ccc3c(c2)CCC3)nc2ccccc2c1=O,active: 2.31 µM,–
CCC1CN(CCNC(=O)c2cccc3nccnc23)Cc2cc(OC)ccc2O1 (stereo not given),"inconclusive [inhibitor, single point]",–
CCN(CC)S(=O)(=O)c1ccc(N=N/C(C(C)=O)=C(/C)O)cc1,"inconclusive [inhibitor, full curve]",–
Cc1cccc(N2CCN(S(=O)(=O)c3c(C(=O)N4CCC(C)CC4)c(C)n(C)c3C)CC2)c1C,active: 23.1 µM,–
O=C(CN(Cc1ccccc1)C(=O)c1ccco1)NCc1ccc(F)cc1,–,inactive: -12.8%
COc1cc(C(=O)OCC(=O)NCCC2=CCCCC2)ccc1OCC(C)C,"inconclusive [inhibitor, single point]",–
O=C(Nc1cc(F)ccc1F)c1ccc2c(=O)n3c(nc2c1)CCC3,"inconclusive [inhibitor, single point]",–
CCC(C)NC(=O)c1ccc(N2CCC3(CC2)OCCO3)c([N+](=O)[O-])c1 (stereo not given),–,inconclusive: -38.3% [inhibitor]
CN(C)CCNC(=O)c1onc(CSc2ccc(F)cc2)c1C(=O)NCCN(C)C,–,inactive: -17.7%
Cc1ccc(NC(=O)Cn2cnc3sc(C)c(S(=O)(=O)N4CCN(c5ncccn5)CC4)c3c2=O)cc1F,"inconclusive [inhibitor, partial curve, poor fit]",–
COc1ccccc1NC(=O)c1ccc(NC(=O)COC(=O)C2(C)CC2(Cl)Cl)cc1 (stereo not given),"inconclusive [inhibitor, single point]",–

SMILES,Potency,"activity change, negative = growth inhibition"
O=C(NC1CCCCC1)C1c2ccccc2C(=O)N1Cc1ccco1 (stereo not given),–,inactive: 3.48%
CCOc1ccc(S(=O)(=O)NCc2ccncc2)cc1NC(=O)c1ccccc1F,active: 1.46 µM,–
CCCCCc1nn2cc(-c3ccccc3)nc2s1,"inconclusive [inhibitor, partial curve, poor fit]",–
CN(Cc1cccc2cnccc12)C(=O)c1cc(COc2ccc(F)cc2F)on1,"inconclusive [inhibitor, partial curve]",–
CCOC(=O)C1(CCCc2ccccc2)CCN(Cc2cnc(C)s2)CC1,active: 10.3 µM,–
Cc1ccc(S(=O)(=O)NNC(=O)c2cnn(-c3ccccc3)c2-n2cccc2)cc1,active: 1.46 µM,–
CCCc1cnc2c(c1SCC(=O)Nc1ccccc1F)c(=O)n(C)c(=O)n2C,active: 23.1 µM,–
CCC(C)n1c(SCC(=O)NC(=O)Nc2ccc3c(c2)OCCO3)nc2ccccc2c1=O (stereo not given),"inconclusive [inhibitor, single point]",–
C=C(C)c1cccc(C(C)(C)NC(=O)Nc2cc(C)ccc2OC)c1,"inconclusive [inhibitor, single point]",–
O=C(Nc1ccc(Cl)c(Cl)c1)c1ccc(Cn2c(=O)[nH]c3ccsc3c2=O)cc1,"inconclusive [inhibitor, single point]",–
O=C(c1cccc(Oc2ccccc2)c1)N1CCN(c2ccccn2)CC1,–,inactive: -27.8%
CCOc1ccc(C(c2c(O)cc(C)n(Cc3ccco3)c2=O)N2CCN(c3ccccc3)CC2)cc1 (stereo not given),"inconclusive [inhibitor, single point]",–
Cc1ccc(S(=O)(=O)c2nc(-c3ccccc3Br)oc2N(C)C)cc1,"inconclusive [inhibitor, single point]",–
CC(=O)OC1CCC2(C)C(=CCC3C4CC(=O)N(O)C(=O)C4(C)CCC32)C1 (stereo not given),active: 5.17 µM,–
Cc1cnc(NC(=O)C2CCC(C(C)(C)C)CC2)s1 (stereo not given),"inconclusive [inhibitor, single point]",–
CCCc1cc(=O)n2[nH]c(NCc3c(Cl)cccc3Cl)nc2n1,"inconclusive [inhibitor, single point]",–
CCN(CC)C(=O)C1CCC(CNS(=O)(=O)c2cccc3nsnc23)CC1 (stereo not given),–,inactive: -2.11%
CC1(C)CC(=O)C(C2C3=C(CC(C)(C)CC3=O)OC3=C2C(=O)CC(C)(C)C3)=C(O)C1,–,inactive: -18.8%
CCC(=O)N1CCc2cc(Br)c(S(=O)(=O)NCCN3CCCCC3CC)cc21 (stereo not given),–,inactive: 6.25%
COc1ccc(-c2cnc3cccnn23)cn1,"inconclusive [inhibitor, single point]",–
Cc1ccc(NC(=O)C2CC(=O)N(c3ccc4c(c3)OCCO4)C2)cc1S(=O)(=O)N(C)C (stereo not given),"inconclusive [inhibitor, single point]",–
CN1CCN(C(=O)/C=C/c2ccc(Cl)c(Cl)c2)CC1,–,inactive: -0.649%
